Screen size: about 3,200 compounds; about 75 (2%) showed an effect of 50% or more. The list shows a part of the results.
Tested on: T1, S. aureus MSSA476
T1 construct: MSSA476
Design: species or system S. aureus MSSA476 (TSB) or V. cholerae SAD30 (LB); 384-well bacterial growth screen at 25 uM, OD600 relative to DMSO control
Settings: relative growth, OD600, TSB; 25 µM; inhibitor

In order of falling “% of control remaining” value:
1. Cc1ccc(C(=O)CN(C(=O)CCl)c2ccccc2)cc1 [4-B13, 2-chloro-N-[2-(4-methylphenyl)-2-oxoethyl]-N-phenylacetamide]  140.638%
2. Nc1c(C(=O)CCl)c(=O)[nH]c(=O)n1C1CC1 [10-P06, 6-amino-5-(2-chloroacetyl)-1-cyclopropyl-1,2,3,4-tetrahydropyrimidine-2,4-dione]  118.438%
3. C=CC(=O)NCCC(=O)Nc1nc2n(n1)CCCC2 [2-M14, N-[2-({5H,6H,7H,8H-[1,2,4]triazolo[1,5-a]pyridin-2-yl}carbamoyl)ethyl]prop-2-enamide]  114.883%
4. CC(Cl)C(=O)N1CCn2c(Cc3c(F)cccc3F)nnc2C1 (stereo not drawn) [6-F18, 2-chloro-1-{3-[(2,6-difluorophenyl)methyl]-5H,6H,7H,8H-[1,2,4]triazolo[4,3-a]pyrazin-7-yl}propan-1-one]  110.976%
5. O=C(CCl)NC(=O)c1ccc(OC(F)F)cc1 [5-J22, N-(2-chloroacetyl)-4-(difluoromethoxy)benzamide]  106.011%
6. O=C(CCl)Nc1ccnn1Cc1ccccc1Cl [6-O08, 2-chloro-N-{1-[(2-chlorophenyl)methyl]-1H-pyrazol-5-yl}acetamide]  103.805%
7. CN1C(=O)C(=C(C#N)C(=O)NCc2ccc(Cl)cc2)c2ccccc21 [8-K17, N-[(4-chlorophenyl)methyl]-2-cyano-2-(1-methyl-2-oxo-2,3-dihydro-1H-indol-3-ylidene)acetamide]  101.577%
8. CC(Cl)C(=O)NC(C)c1nnnn1C1CC1 (stereo not drawn) [7-N21, 2-chloro-N-[1-(1-cyclopropyl-1H-1,2,3,4-tetrazol-5-yl)ethyl]propanamide]  99.2151%
9. N#CC(=Cc1coc2ccccc2c1=O)C(=O)NCCc1ccccc1 [9-J10, 2-cyano-3-(4-oxo-4H-chromen-3-yl)-N-(2-phenylethyl)prop-2-enamide]  99.176%
10. C=CC(=O)NCCc1ccnn1C [2-O17, N-[2-(1-methyl-1H-pyrazol-5-yl)ethyl]prop-2-enamide]  97.8242%
11. C=CC(=O)N(CC)CC(=O)N1CCCC1c1ccc(F)cc1C (stereo not drawn) [2-F08, N-ethyl-N-{2-[2-(4-fluoro-2-methylphenyl)pyrrolidin-1-yl]-2-oxoethyl}prop-2-enamide]  97.1279%
12. N#CC(=Cc1ccc2c(c1)OCCO2)C(=O)NCc1ccccc1 [8-H03, N-benzyl-2-cyano-3-(2,3-dihydro-1,4-benzodioxin-6-yl)prop-2-enamide]  96.9295%
13. C=CC(=O)NCC(=O)N1CCCO1 [1-H05, N-[2-(1,2-oxazolidin-2-yl)-2-oxoethyl]prop-2-enamide]  95.6484%
14. Cc1nn(C)c(C)c1C(NC(=O)CCl)C(F)(F)F (stereo not drawn) [5-M18, 2-chloro-N-[2,2,2-trifluoro-1-(1,3,5-trimethyl-1H-pyrazol-4-yl)ethyl]acetamide]  92.1676%
15. CCCn1c(C)cc(C=C(C#N)C(=O)N2CCCC2)c1C [9-I03, 3-(2,5-dimethyl-1-propyl-1H-pyrrol-3-yl)-2-(pyrrolidine-1-carbonyl)prop-2-enenitrile]  89.2884%
16. C=CC(=O)NCc1cnc(-c2ccc(C(F)(F)F)cc2)s1 [1-C13, N-({2-[4-(trifluoromethyl)phenyl]-1,3-thiazol-5-yl}methyl)prop-2-enamide]  87.5604%
17. CCN(CC)C(=O)c1ccc(NC(=O)CCl)cc1 [4-C05, 4-(2-chloroacetamido)-N,N-diethylbenzamide]  84.9929%
18. Cc1cc(CN(C(=O)CCl)c2cn(C)nn2)ccc1Cl [5-I12, 2-chloro-N-[(4-chloro-3-methylphenyl)methyl]-N-(1-methyl-1H-1,2,3-triazol-4-yl)acetamide]  79.7814%
19. N#CC(=Cc1cnn(CCCl)c1)C(=O)NC1CCCCC1 [9-A16, 3-[1-(2-chloroethyl)-1H-pyrazol-4-yl]-2-cyano-N-cyclohexylprop-2-enamide]  79.7004%
20. C=CC(=O)N1CCCCC1Cn1ccnn1 (stereo not drawn) [2-K07, 1-{2-[(1H-1,2,3-triazol-1-yl)methyl]piperidin-1-yl}prop-2-en-1-one]  79.0252%
21. CC(=O)NC1(c2nc(C)cs2)CCN(C(=O)C(C)Cl)C1 (stereo not drawn) [7-O06, N-[1-(2-chloropropanoyl)-3-(4-methyl-1,3-thiazol-2-yl)pyrrolidin-3-yl]acetamide]  78.4929%
22. O=C(CCl)N1CCC(CCc2ccccc2)CC1 [6-G12, 2-chloro-1-[4-(2-phenylethyl)piperidin-1-yl]ethan-1-one]  75.122%
23. CC(O)=C(C#N)C(=O)Nc1ccc(C(F)(F)F)cc1 [9-A05, 2-cyano-3-hydroxy-N-[4-(trifluoromethyl)phenyl]but-2-enamide]  71.6105%
24. Cc1cc(C)c(NC(=O)C(C#N)=Cc2ccccc2C)c(C)c1 [8-E13, 2-cyano-3-(2-methylphenyl)-N-(2,4,6-trimethylphenyl)prop-2-enamide]  65.0622%
25. COc1cccc(C=C(C#N)C(=O)Nc2ccccc2C(=O)O)c1 [9-G08, 2-[2-cyano-3-(3-methoxyphenyl)prop-2-enamido]benzoic acid]  64.1199%
26. N#CC(=Cc1cccc(O)c1)C(=O)Nc1ccc(SC(F)F)cc1 [9-C19, 2-cyano-N-{4-[(difluoromethyl)sulfanyl]phenyl}-3-(3-hydroxyphenyl)prop-2-enamide]  61.1236%
27. O=C(CCl)c1cn(-c2cccc(C(F)(F)F)c2)nn1 [10-C09, 2-chloro-1-{1-[3-(trifluoromethyl)phenyl]-1H-1,2,3-triazol-4-yl}ethan-1-one]  -0.3125%

From paper PMC11995724, “Antibiotic target discovery by integrated phenotypic and activity-based profiling of electrophilic fragments” (Cell chemical biology, 2025)
